# Experimental data as given in the supplement of paper PMC3334620.
# Over roughly 33,000 sequences, “E-score (-0.5 to 0.5)” has its median near -0.036; the highest 2% begin near 0.37. The list shows a part of the results.
# Biological target: T1, Yer064c (UniProt P40041)
# T1 sequence: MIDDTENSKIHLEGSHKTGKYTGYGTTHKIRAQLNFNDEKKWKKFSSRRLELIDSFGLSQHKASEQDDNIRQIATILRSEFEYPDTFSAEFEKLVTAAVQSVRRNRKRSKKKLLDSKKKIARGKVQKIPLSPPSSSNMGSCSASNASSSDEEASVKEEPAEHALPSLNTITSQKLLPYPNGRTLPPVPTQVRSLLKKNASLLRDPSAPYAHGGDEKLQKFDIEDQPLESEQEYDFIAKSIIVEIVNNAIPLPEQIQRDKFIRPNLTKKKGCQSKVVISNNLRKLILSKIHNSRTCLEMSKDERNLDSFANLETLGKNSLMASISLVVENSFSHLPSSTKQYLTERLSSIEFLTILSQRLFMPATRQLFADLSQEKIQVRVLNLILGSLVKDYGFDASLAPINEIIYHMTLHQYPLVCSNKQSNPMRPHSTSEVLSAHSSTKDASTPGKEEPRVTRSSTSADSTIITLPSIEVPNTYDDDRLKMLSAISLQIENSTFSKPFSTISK
# Test: PBM E-score (8-mer binding enrichment) (E-score (-0.5 to 0.5)); higher = stronger / more preferred TF binding; most listed sequences are background and not binding sites
# Settings: protein concentration: 200 nM; construct: GST-full length
# Protocol: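 Universal 'all 10-mer' protein binding microarrays (Agilent AMADID 015681) probed with GST-tagged S. cerevisiae TFs (full-length or DBD) made by in vitro transcription/translation (PURExpress), about 100-200 nM. Bound TF was detected with fluorescent anti-GST. Each ungapped 8-mer (which stands for itself and its reverse complement) is scored by the PBM enrichment score (E-score), a modified Wilcoxon-Mann-Whitney statistic from -0.5 to +0.5, computed with the Universal PBM Analysis Suite. Scale: above 0.35 generally sequence-specific binding.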
row,Sequence,PBM E-score
1,ACTTGCTG,0.0765
2,GGCATGCA,-0.106
3,GTTTACAA,0.00942
4,CTCATTAC,0.14
5,TCCGCCAA,-0.106
6,ATGGACCC,-0.215
7,ATTATACG,0.0811
8,AACCCTAC,-0.183
9,GGCTCGTA,-0.00888
10,TAGGGTGA,0.249
11,TCCTCTAA,0.0696
12,TACTACGA,0.181
13,TAACCCGA,0.0588
14,CCAGACAA,-0.106
15,CTACCCTA,-0.00825
16,CCGAGTAA,-0.0541
17,CTGAAGAC,0.152
18,GACTGCAC,0.288
19,GGTCACAC,-0.00398
20,ACGACTTA,0.276
21,ATCCCGTA,-0.128
22,CGGAGATA,-0.051
23,AGGAGCTA,-0.21
24,AGTCCAGA,0.243
25,AAGGGATC,-0.128

row,Sequence,PBM E-score
1,CAGCACCG,-0.0618
2,ACAAATAC,0.0831
3,CGTCTCCA,-0.139
4,ATCGGGAC,-0.0863
5,CGCAAATA,-0.0941
6,CCCTCACC,-0.163
7,GATTTCAC,0.26
8,GGGCGTCA,-0.227
9,GCCGCCAA,-0.0657
10,ACGAAATC,0.12
11,ATCAGCAC,0.233
12,AATTCAAT,0.0175
13,CAATCGCC,0.0336
14,AGCGATCG,-0.147
15,GAACATGC,-0.288
16,AGTCGAAC,0.219
17,ACCCAATA,-0.195
18,ATAACATG,0.016
19,CAACACAA,0.0452
20,AGCGCTGC,-0.207
21,AATGGGCT,-0.041
22,TGGGGTAA,0.044
23,ACGCCCTG,-0.221
24,CATGCGCA,0.0115
25,GCGCGGCC,-0.365

row,Sequence,PBM E-score
1,AACCGGAA,-0.263
2,CCGACGCA,-0.317
3,CCGCGTCG,0.105
4,AAGAGGGG,-0.354
5,GCTTTAAA,0.0638
6,GATAATAC,0.0323
7,ACGCAGGA,-0.137
8,ATACATAT,0.113
9,AATGTAAG,0.0552
10,GCGCCCAC,-0.243
11,AGAGGGCA,0.0642
12,ACGAAACT,0.0467
13,CGCAGCGC,-0.189
14,ATATACGA,0.0449
15,ATTCGTCC,0.0945
16,AAAGTGAG,0.188
17,ATAGCGAC,-0.0257
18,ACATGTCT,0.144
19,AAGCAACG,-0.155
20,ATGACTGA,0.464
21,AACCTAGA,-0.189
22,GAACCGCA,0.015
23,AATGCTAC,0.017
24,CTAGTGGA,-0.0448
25,GTCTCTTA,0.034

row,Sequence,PBM E-score
1,CGCATTCA,-0.0901
2,CCGTTCTA,-0.0689
3,CCGCAACA,0.034
4,CGCATCAG,0.00592
5,ATATCACC,-0.00284
6,ACGGGTCG,-0.0559
7,CGCGCCAA,-0.0672
8,TGAAGGAA,0.0648
9,ATTTAATG,0.0592
10,ACGAAGCT,-0.147
11,AGAGCCGC,-0.156
12,ATGTAGCC,-0.196
13,ACATTGGA,-0.253
14,CCGGTTAC,0.0003
15,CCGAGCCG,-0.218
16,ATCAACCA,0.198
17,GGTCCTAC,-0.276
18,ATGATCAA,0.185
19,ATTCTTGA,0.189
20,ATTGCCCG,-0.0774
21,GCTGATCA,0.111
22,TATTGAAA,0.186
23,AGCGCTGA,0.0781
24,CATGGCAG,0.0472
25,GATTCGTA,0.166

row,Sequence,PBM E-score
1,CTGTCCTA,-0.0316
2,AACAACCC,-0.2
3,CATCGAAG,-0.191
4,AATTCTGG,-0.0115
5,ATTCGTGC,0.127
6,CGATTGCA,0.0549
7,ACTCTAAG,0.0252
8,CCCCTTAG,-0.138
9,ACTAGTCG,0.323
10,GATTCTTA,0.294
11,AATGTTGA,-0.043
12,TGATAGAA,-0.16
13,AAAGGCTT,-0.143
14,AAGTGCTG,0.0417
15,AGGTCTAC,-0.0112
16,CGCTATCC,-0.199
17,ACTCATTC,0.394
18,GTATATTA,0.206
19,TCTCCAAA,0.0477
20,GCACTCGA,-0.0859
21,ACCAGTTC,-0.271
22,CATAAGCG,0.00196
23,ACTTATTA,0.165
24,CGAATAGA,-0.0882
25,CCTTGGCG,-0.0906

row,Sequence,PBM E-score
1,GAGCTTAA,0.029
2,AGGAGTAA,0.177
3,CTTCCACC,-0.24
4,CCGGTACG,-0.174
5,AAGTTGGC,-0.216
6,ATCAGGGA,-0.0516
7,GCTGTTCC,-0.335
8,ATGCTATG,0.0936
9,CCGGAGAA,-0.117
10,GTCCGTAA,0.0807
11,ATCTAGTA,0.138
12,GCCATCCA,-0.0888
13,CGTGTGAC,0.0672
14,TGCCTTAA,-0.0909
15,CTACTACC,-0.0463
16,ACACGTAA,0.0013
17,GGTTAAAA,0.0563
18,AACCCGCC,-0.00783
19,GTGATGTA,-0.0289
20,GGGAGACC,-0.259
21,GTACAGAA,0.0343
22,CTCACGCC,0.172
23,CACACTGA,0.0492
24,GTCGCCCA,0.0975
25,ATATAGGG,-0.236

row,Sequence,PBM E-score
1,CTTGTCAC,-0.185
2,CGTGGGTA,0.0333
3,AGCATGAC,0.212
4,AGATGTGG,-0.0274
5,CTGAGTCC,0.402
6,GCAAGTAC,0.023
7,AATCGATC,0.128
8,AAGACAAG,-0.182
9,GAAAGGGC,-0.14
10,TTCTCCAA,-0.117
11,CGCTAACG,0.0264
12,GCAAGGCC,-0.239
13,CCTAAACA,-0.103
14,ATATCCAA,0.0243
15,TAGTCTAA,0.279
16,AATTGTTC,0.0722
17,CCGAGCGC,-0.0243
18,GAGGTAGC,-0.0828
19,CGGTCACA,-0.132
20,ACAAAACG,-0.0665
21,AATAGTGT,0.0208
22,ACCGGTCC,-0.0405
23,CCTCTGTA,-0.108
24,GACTAACA,0.449
25,AAGTCGTG,0.281

row,Sequence,PBM E-score
1,AGCAGACC,-0.0838
2,GGAGGGGA,-0.203
3,GCCAACAA,-0.116
4,CCAGCAAG,-0.109
5,TGCGGTAA,0.0977
6,CACGGCCA,-0.185
7,CCTATGCC,-0.151
8,CGGGGCAG,-0.052
9,CCGACGAG,0.00632
10,CTTGAATC,0.348
11,CTGGAGGA,-0.2
12,GAGAACTA,0.0181
13,CACCCAAG,-0.107
14,TCATAGCA,0.262
15,CAAGATCC,-0.0644
16,TACCCCCA,-0.163
17,AGCCTTAC,-0.217
18,CGTGCTGA,0.116
19,AAACGACG,0.0119
20,GCCGGGAA,-0.314
21,AACCTAGG,-0.249
22,GATCCTGA,-0.0226
23,CCGAGGGC,-0.0597
24,CAGCATCC,-0.195
25,AAGCAGAG,0.0717

row,Sequence,PBM E-score
1,ACTCCTGC,0.176
2,GCACTTTA,0.041
3,ACGCGACA,-0.128
4,GCAGACCA,-0.0921
5,ATCTCGGG,0.0757
6,CATCTTAG,0.0471
7,GTTTACCA,0.148
8,ATCGATAG,0.0388
9,ATGCCAAT,-0.122
10,AGCGTCCC,-0.314
11,GAATAAAC,-0.0329
12,ATCACCTC,0.113
13,GTAGGGGA,-0.202
14,ACGCGACT,0.376
15,ACGAGGAA,-0.136
16,GCGTGGTA,-0.2
17,CCGTCGCA,-0.182
18,CAATACGG,-0.342
19,AGCAAGTG,-0.0201
